About 230 (0.21%) of roughly 110,000 compounds showed an effect of 50% or more. The list shows a part of the results.
These molecules were tested against DPAP1 (Plasmodium falciparum, UniProt Q8IIJ9) (assay: primary screen, percent inhibition; read by cleavage of a fluorogenic dipeptide substrate; higher = more effect of the substance).
Parameters: species or system P. falciparum D10 trophozoite lysates; single well
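Also: 30 min substrate incubation versus DMSO and 10 µM JCP410 controls.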

Chain of DPAP1 (Q8IIJ9 whole entry, looked up): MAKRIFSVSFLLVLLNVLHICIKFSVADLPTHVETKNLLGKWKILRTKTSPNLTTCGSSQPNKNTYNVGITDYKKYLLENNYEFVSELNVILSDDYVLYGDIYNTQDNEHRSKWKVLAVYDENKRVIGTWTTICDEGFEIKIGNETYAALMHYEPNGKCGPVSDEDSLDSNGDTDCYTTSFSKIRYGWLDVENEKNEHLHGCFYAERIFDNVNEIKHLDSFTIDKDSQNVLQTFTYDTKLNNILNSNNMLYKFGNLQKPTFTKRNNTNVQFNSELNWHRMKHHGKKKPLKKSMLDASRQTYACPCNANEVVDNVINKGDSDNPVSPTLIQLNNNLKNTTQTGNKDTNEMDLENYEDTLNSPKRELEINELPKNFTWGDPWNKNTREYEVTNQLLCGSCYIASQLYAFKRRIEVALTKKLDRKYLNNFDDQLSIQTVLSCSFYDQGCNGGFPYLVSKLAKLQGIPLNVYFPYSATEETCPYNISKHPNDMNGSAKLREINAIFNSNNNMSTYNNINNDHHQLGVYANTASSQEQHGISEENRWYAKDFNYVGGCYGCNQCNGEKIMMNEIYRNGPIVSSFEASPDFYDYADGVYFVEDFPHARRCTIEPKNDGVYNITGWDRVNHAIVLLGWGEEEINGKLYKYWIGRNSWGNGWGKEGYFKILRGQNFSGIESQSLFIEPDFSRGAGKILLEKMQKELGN

| SMILES | % Inhibition @ 10 uM [%] |
| --- | --- |
| Cc1ccc(N)cc1NC(=O)c1ccc(N)cc1 | 8.19 |
| O=C(Cn1c(=O)n(Cc2ccco2)c(=O)c2sc3ccccc3c21)NC1CCCCC1 | -6.52 |
| CC(=O)Nc1sc2c(c1C(=O)Nc1ccc(Br)cc1)CCCC2 | -4.06 |
| CCN(CC)S(=O)(=O)c1cc(C(=O)NCc2ccco2)ccc1Br | 0.291 |
| CC(C)c1ccc(CSCc2nc3ccccc3[nH]2)cc1 | 1.03 |
| COc1ccccc1Nc1cc(C)nc2c(OC)cccc12 | 1.05 |
| Cc1ccccc1OCCSc1nc(-c2ccccc2F)nc2cc(=O)[nH]n12 | 1.97 |
| COc1cc(/C=c2/sc3nc4cc(C)c(C)cc4n3c2=O)cc(OC)c1OC | -0.053 |
| CCOC(=O)Nc1ccc2c(c1)N(C(=O)CNC(C)C)c1ccccc1CC2 | -2.69 |
| O=C(NCc1ccco1)c1cc(-c2ccc(Cl)s2)nc2ccccc12 | -3.27 |
| O=C(CSc1nnc(CNC(=O)c2c(F)cccc2Cl)o1)NCc1ccc2c(c1)OCO2 | -1.58 |
| CCOC(=O)c1c(S(=O)(=O)NC(C)(C)CC)c(C)n(C)c1C | 4.85 |
| C=C(C)Cn1c(S)nnc1-c1ccc(Cl)cc1Cl | 7.49 |
| NS(=O)(=O)c1ccc(CCNC(=O)COc2ccccc2)cc1 | -3.49 |
| CC(C)Cn1c(CN2CCN(Cc3ccccc3)CC2)nc2c1c(=O)[nH]c(=O)n2C | 6.37 |
| CC1=C(C(=O)N2CCOCC2)C(c2ccc(Cl)cc2)C2=C(O)CC(C)(C)CC2=N1 (stereo not shown) | 6.48 |
| COc1ccc(C2=NOC(C(=O)NCc3cccnc3)C2)cc1 (stereo not shown) | -3.67 |
| COc1ccc(C2SCC(=O)N2c2ccc(C)cc2)cc1 (stereo not shown) | 0.912 |
| CCOc1cc(C2C(C(=O)OC)=CN(C(C)C)C=C2C(=O)OC)ccc1O | 0.219 |
| Cc1nn(Cc2nc(-c3ccncc3)no2)c(C)c1Br | -4.49 |
| COc1cccc(C(=O)Nc2ncccc2C)c1OC | 3.35 |
| CC1CC(C)CN(c2nnc(NC(=O)c3cc(-c4ccc(Br)cc4)on3)s2)C1 (stereo not shown) | 3.3 |
| COc1cccc(CNC(=O)CNS(=O)(=O)c2ccc(Br)s2)c1 | -0.601 |
| O=C(NCCC1=CCCCC1)c1cc2cccc3c2n1CCS3 | 4.76 |
| Cc1cc(-c2[nH]nc3c2C(c2cc(F)ccc2F)C(C#N)=C(N)O3)c(C)s1 (stereo not shown) | -2.77 |
| CC(=O)N1N=C(c2cccs2)CC1c1ccco1 (stereo not shown) | -7.28 |
| CCc1[nH]nc2c1C(c1ccc(-c3ccc(F)cc3)o1)C(C#N)=C(N)O2 (stereo not shown) | -3.16 |
| C#CCn1c(CCNC(=O)c2ccco2)nc2ccccc21 | 5.45 |
